Each block holds one binder with its values, some of them ahead of it.
Experiments:
[1] = biological target: T1, IL2Rβγ-Fc (UniProt P14784 27-240; P31785 23-262, limits assumed); experiment: BLI (Fortebio Octet RED96), IL2Rβγ-Fc loaded on ProA sensor, analyte 2.5-40 nM as labelled; R2 0.9926
T1 construct: From Beijing Zhidao Biotechnology, loaded on ProA sensors; also called IL2Rβγ receptors; complex of β and γ receptor subunits; not shown: Fc
T1 sequence (looked up) 1: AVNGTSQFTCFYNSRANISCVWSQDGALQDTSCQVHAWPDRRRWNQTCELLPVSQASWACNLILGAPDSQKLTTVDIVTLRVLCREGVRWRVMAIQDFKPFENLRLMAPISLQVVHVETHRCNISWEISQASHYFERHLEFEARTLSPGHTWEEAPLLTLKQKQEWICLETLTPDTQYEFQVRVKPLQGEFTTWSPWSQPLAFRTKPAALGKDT
T1 sequence (looked up) 2: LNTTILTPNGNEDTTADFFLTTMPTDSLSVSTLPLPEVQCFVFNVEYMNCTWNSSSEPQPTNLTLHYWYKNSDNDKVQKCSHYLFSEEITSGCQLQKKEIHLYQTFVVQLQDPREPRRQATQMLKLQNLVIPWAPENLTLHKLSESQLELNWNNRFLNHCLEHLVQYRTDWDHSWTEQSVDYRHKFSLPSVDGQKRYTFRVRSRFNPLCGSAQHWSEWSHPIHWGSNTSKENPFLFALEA
Protocol: (§1) IL2Rβγ-Fc was diluted with the buffer solution to a concentration of 10 μg/mL, and then added to column 2 of the 96-well assay plate. The program was set to Loading, 600 s.
(§2) They were added to columns 5-9 of the 96-well assay plate, respectively. The program was set to Association, 200 s. The buffers were added to columns 1, 4, 10 and 11 of the 96-well assay plate, and the glycine with pH 1.7 was added to column 12. The loading volume of the above samples or solutions was 200 μL.
(§3) 8 ProA sensors were respectively placed in A-H of column 1 of the sensor holder. In the software Data acquisition 11.0, the detection conditions were set as follows. 1 Pre-wetting: Baseline, 60 s, Position: Column 1. 2 Cycle detection: column 2: loading, 600 s; column 4: Baseline 1, 60 s; columns 5-9: Association, 200 s; column 10: Dissociation, 600 s; column 11: neutralization; and column 12: regeneration.

[2] = biological target: T1, IL2Rβγ-Fc; experiment: BLI (Fortebio Octet RED96), IL2Rβγ-Fc loaded on ProA sensor, analyte 1.25-40 nM; R2 0.9985
Protocol: as §1, §2, §3

[3] = biological target: T1, IL2Rβγ-Fc; experiment: BLI (Fortebio Octet RED96), IL2Rβγ-Fc loaded on ProA sensor, analyte 1.25-40 nM; R2 0.9982
Protocol: The buffer formulation was as follows: 10 mM HEPES, 150 mM sodium chloride, 3 mM EDTA, 0.1% BSA and 0.05% Tween 20. The ProA sensor was purchased from Pall Fortebio (Cat. No. #18-5010). The HISIK sensor was purchased from Pall Fortebio (Cat. No. #18-5120). The BLI equipment was Octet RED96 from Pall Fortebio. Data acquisition and analysis were carried out using software Data acquisition 11.0 and Data Analysis 11.0, respectively.
as §1, §3

- Kd [1]: 0.517 nM
B1: IL-2 Complex 1: IL-2 (C125A, T41C) Pair 1 with CD25-ECD (N27C) Pair 1 (other)
chain 1: [omitted - about 150 residues]
chain 2: ELCDDDPPEIPHATFKAMAYKEGTMLCCECKRGFRRIKSGSLYMLCTGNSSHSSWDNQCQCTSSATRNTTKQVTPQPEEQKERKTTEMQSPMQPVDQASLPGHCREPPPWENEATERIYHFVVGQMVYYQCVQGYRALHRGPAESVCKMTHGKTRWTQPQLICTG
notes: IL-2/CD25-ECD heterodimer from co-expression in HEK293, designed to be joined by an intermolecular disulfide bond between IL-2 Cys41 and CD25-ECD Cys27

- Kd [2]: 0.308 nM
B2: IL-2 Complex 2: IL-2 (C125A, P34C) Pair 2 with CD25-ECD (D4C) Pair 2 (other)
chain 1: [omitted - about 150 residues]
chain 2: ELCCDDPPEIPHATFKAMAYKEGTMLNCECKRGFRRIKSGSLYMLCTGNSSHSSWDNQCQCTSSATRNTTKQVTPQPEEQKERKTTEMQSPMQPVDQASLPGHCREPPPWENEATERIYHFVVGQMVYYQCVQGYRALHRGPAESVCKMTHGKTRWTQPQLICTG
notes: IL-2/CD25-ECD heterodimer from co-expression in HEK293, designed to be joined by an intermolecular disulfide bond between IL-2 Cys34 and CD25-ECD Cys4

- Kd [3]: 0.253 nM
B3: IL-2 Complex 4: IL-2 (C125A, Y45C) Pair 4 with CD25-ECD (R35C) Pair 4 (other)
chain 1: [omitted - about 150 residues]
chain 2: ELCDDDPPEIPHATFKAMAYKEGTMLNCECKRGFCRIKSGSLYMLCTGNSSHSSWDNQCQCTSSATRNTTKQVTPQPEEQKERKTTEMQSPMQPVDQASLPGHCREPPPWENEATERIYHFVVGQMVYYQCVQGYRALHRGPAESVCKMTHGKTRWTQPQLICTG
notes: IL-2/CD25-ECD heterodimer from co-expression in HEK293, designed to be joined by an intermolecular disulfide bond between IL-2 Cys45 and CD25-ECD Cys35

— US20220363731A1 (LETO LABORATORIES, published 2022)
